# According to the supplement of paper PMC8728848:
# Some of the results follow.
# B1: Epa10 (protein)
# chain: MNEKIFRYLTLLFLFELARSLPVEDKLNIKKVFEKRAVDFTPFAHYPRPEGCSSPPNSVSVGLHMNLYNYPYLYVKPSTKGMFTNDTNSDADGETDGDSAGGIEGRAGQCWNPEYQDPNFPRFGYKQYGEFGASDNVNGDISWDHNEFTEGCKPVLAALPPGYNYPDEITFSNFTMVLSGYFKPKTSGVYKFELKADDFILFNFGAKNAFECCNREESIDNFGPYVAYAMWPNQADQELEVYLFEDSYYPLRLFYNNRDYHSKFKIGFYPPGQTTITFDFDGYLFMLDDTGNECRDSIRYRTVCDDKVVDDTTYSTRYSTSMVPGGGSDVITIYYIRMKCEEEDCLGQWDPINNVCYSPDDCADDGGYWNGQMCDQSCKLEGGIVNPDTGDCDKSCIESGGFLDENGNCDTTCRDDGGMLVEGQCDYQCKEAGGILVGDHCDTTCVDSGGKLNEDGTCDHSCRDQGGQLDENGECDTSCKDSGGMLIEGECDTSCKDEGGQLDDNNECINHCKDQGGIIDENGNCDTSCKDSGGKLDESGACDTSCRDDGGIIDENGNCNTTCRDDGGIIVGDHCDTSCRDAGGILIEDHCDTTCRDSGGKLNEDGTCDHSCRDQGGQLDENGKCDYSCKNGGGKLDEDGNCDMSCKENGGKLDENGDCDLSCKEDGGKLDGNGDCDYSCKEEGGVIDESGNCNTTCKDSGGQIIDGECNYGCIEVGGVVIDGECDTSCIDSGGILDGDGNCDRSCIESGGVLEDGACNTTCRDSGGQLNVDGTCDTSCRDDGGMLVEGQCDYQCKEAGGILEDGECVFPPTSSSTSETSSTTDQSSLQSDDSSMESSSTPMDSSTIESSSSEIITSESESESVPIASSSSEVMTSESESESIPILTSSSEIPIASSSSEIPVASSSSEIIIPESESESVPVASSSSEIPIASSSSEIPVASSSSEIPVASSSSEIIIPESESESIPIESTSSEAVSSRSESDSSYPTPTPTTTTITTWPNPIQPTTSNSSPIVSSSTETPGIAESSSRISDLESSRRTSILGDDRTRTRTTITSTITEDGQIITITTTVTGFVPEPTGETEGNGSDDENPENPIENNTDENEFLDPEFTDDIPDDPAGPEDNGNGPVNPEQGNDNDPVNLEDSGNNGAVNPEQAPVNDEDNGGNDPVNPEQDNNNGPANPGQDSTNGSGNSDQIDNNPPTPEENAGDGNSNGNDPADPSRRTSILGDERTRASPGGTSQPTGANGNVNGNSPGANVNGGGTGNSNNNNNNNNNNNNGNAPNGGDGSNGDANQGPSRRTSLLGDERTRAGQAAPTGGSSPDNGIAGDTSNNGGAIVSQQVDDGGAGSPRRTSILGDVRSRTTLNGEVLNFEGSGVRRAVAGNLALPLMMVGLVFNL
# How the values were obtained:
# Experiment in all cases: glycan array binding signal (z-score within array); higher = stronger binding
# Conditions in all cases: glycan notation: IUPAC condensed, linker removed
# [1] = molecular target: Neu5Ac(a2-3)Gal(b1-4)GlcNAc(b1-6)GalNAc
# Summary of the method: (§1)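 Glycan array data were curated from 3228 arrays in the Consortium for Functional Glycomics database and kept only where the protein sequence was available. Glycan names were converted to IUPAC-condensed notation, and columns mapping to the same glycan were averaged. The binding signal is a within-array Z-score, averaged across arrays of the same protein sequence at different concentrations or buffers and across linkers. Negative Z-scores can be read as non-binding.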
# [2] = molecular target: Neu5Ac(a2-3)Gal(b1-4)GlcNAc(b1-6)[Gal(b1-3)]GalNAc
# Summary of the method: as §1
# [3] = molecular target: Neu5Ac(a2-3)Gal(b1-4)GlcNAc(b1-6)[Neu5Ac(a2-3)Gal(b1-3)]GalNAc
# Summary of the method: as §1
# [4] = molecular target: Neu5Ac(a2-3)Gal(b1-4)GlcNAc6S
# Summary of the method: as §1
# [5] = molecular target: Neu5Ac(a2-3)Gal(b1-4)[Fuc(a1-3)]GlcNAc
# Summary of the method: as §1
# [6] = molecular target: Neu5Ac(a2-3)Gal(b1-4)[Fuc(a1-3)]GlcNAc(b1-2)Man
# Summary of the method: as §1
# [7] = molecular target: Neu5Ac(a2-3)Gal(b1-4)[Fuc(a1-3)]GlcNAc(b1-3)Gal
# Summary of the method: as §1
# [8] = molecular target: Neu5Ac(a2-3)Gal(b1-4)[Fuc(a1-3)]GlcNAc(b1-3)Gal(b1-4)GlcNAc
# Summary of the method: as §1
# [9] = molecular target: Neu5Ac(a2-3)Gal(b1-4)[Fuc(a1-3)]GlcNAc(b1-3)Gal(b1-4)[Fuc(a1-3)]GlcNAc(b1-3)Gal(b1-4)[Fuc(a1-3)]GlcNAc
# Summary of the method: as §1
# [10] = molecular target: Neu5Ac(a2-3)Gal(b1-4)[Fuc(a1-3)]GlcNAc(b1-3)GalNAc
# Summary of the method: as §1
# [11] = molecular target: Neu5Ac(a2-3)Gal(b1-4)[Fuc(a1-3)]GlcNAc(b1-6)[Gal(b1-3)]GalNAc
# Summary of the method: as §1
# [12] = molecular target: Neu5Ac(a2-3)Gal(b1-4)[Fuc(a1-3)]GlcNAc(b1-6)[Neu5Ac(a2-3)Gal(b1-3)]GalNAc
# Summary of the method: as §1
# [13] = molecular target: Neu5Ac(a2-3)Gal(b1-4)[Fuc(a1-3)]GlcNAc6S
# Summary of the method: as §1
# [14] = molecular target: Neu5Ac(a2-3)Gal6S(b1-4)GlcNAc
# Summary of the method: as §1
# [15] = molecular target: Neu5Ac(a2-3)Gal6S(b1-4)[Fuc(a1-3)]GlcNAc
# Summary of the method: as §1
# [16] = molecular target: Neu5Ac(a2-3)GalNAc
# Summary of the method: as §1
# [17] = molecular target: Neu5Ac(a2-3)GalNAc(b1-4)GlcNAc
# Summary of the method: as §1
# [18] = molecular target: Neu5Ac(a2-3)[GalNAc(b1-4)]Gal(b1-4)Glc
# Summary of the method: as §1
# [19] = molecular target: Neu5Ac(a2-3)[GalNAc(b1-4)]Gal(b1-4)GlcNAc
# Summary of the method: as §1
# [20] = molecular target: Neu5Ac(a2-3)[GalNAc(b1-4)]Gal(b1-4)GlcNAc(b1-3)GalNAc
# Summary of the method: as §1
# [21] = molecular target: Neu5Ac(a2-3)[Neu5Ac(a2-6)]GalNAc
# Summary of the method: as §1
# [22] = molecular target: Neu5Ac(a2-6)Gal
# Summary of the method: as §1
# [23] = molecular target: Neu5Ac(a2-6)Gal(b1-3)GlcNAc(b1-3)[Gal(b1-4)GlcNAc(b1-6)]Gal(b1-4)Glc
# Summary of the method: as §1
# [24] = molecular target: Neu5Ac(a2-6)Gal(b1-4)Glc
# Summary of the method: as §1
# [25] = molecular target: Neu5Ac(a2-6)Gal(b1-4)GlcNAc
# Summary of the method: as §1
# [26] = molecular target: Neu5Ac(a2-6)Gal(b1-4)GlcNAc(b1-2)Man
# Summary of the method: as §1
# [27] = molecular target: Neu5Ac(a2-6)Gal(b1-4)GlcNAc(b1-2)Man(a1-3)Man(b1-4)GlcNAc(b1-4)GlcNAc
# Summary of the method: as §1
# [28] = molecular target: Neu5Ac(a2-6)Gal(b1-4)GlcNAc(b1-2)Man(a1-3)[Gal(b1-4)GlcNAc(b1-2)Man(a1-6)]Man(b1-4)GlcNAc(b1-4)GlcNAc
# Summary of the method: as §1
# [29] = molecular target: Neu5Ac(a2-6)Gal(b1-4)GlcNAc(b1-2)Man(a1-3)[GlcNAc(b1-2)Man(a1-6)]Man(b1-4)GlcNAc(b1-4)GlcNAc
# Summary of the method: as §1
# [30] = molecular target: Neu5Ac(a2-6)Gal(b1-4)GlcNAc(b1-2)Man(a1-3)[GlcNAc(b1-4)][Neu5Ac(a2-6)Gal(b1-4)GlcNAc(b1-2)Man(a1-6)]Man(b1-4)GlcNAc(b1-4)GlcNAc
# Summary of the method: as §1
binder,measurement,setting,value
B1,glycan array binding signal (z-score),[1],-0.223
same,glycan array binding signal (z-score),[2],0.907
same,glycan array binding signal (z-score),[3],-0.259
same,glycan array binding signal (z-score),[4],-0.221
same,glycan array binding signal (z-score),[5],-0.278
same,glycan array binding signal (z-score),[6],-0.151
same,glycan array binding signal (z-score),[7],-0.302
same,glycan array binding signal (z-score),[8],-0.147
same,glycan array binding signal (z-score),[9],-0.17
same,glycan array binding signal (z-score),[10],0.026
same,glycan array binding signal (z-score),[11],-0.023
same,glycan array binding signal (z-score),[12],-0.149
same,glycan array binding signal (z-score),[13],-0.185
same,glycan array binding signal (z-score),[14],-0.25
same,glycan array binding signal (z-score),[15],-0.301
same,glycan array binding signal (z-score),[16],-0.27
same,glycan array binding signal (z-score),[17],-0.195
same,glycan array binding signal (z-score),[18],-0.243
same,glycan array binding signal (z-score),[19],-0.226
same,glycan array binding signal (z-score),[20],-0.25
same,glycan array binding signal (z-score),[21],-0.226
same,glycan array binding signal (z-score),[22],-0.249
same,glycan array binding signal (z-score),[23],-0.285
same,glycan array binding signal (z-score),[24],-0.264
same,glycan array binding signal (z-score),[25],-0.235
same,glycan array binding signal (z-score),[26],-0.218
same,glycan array binding signal (z-score),[27],-0.174
same,glycan array binding signal (z-score),[28],-0.179
same,glycan array binding signal (z-score),[29],-0.287
same,glycan array binding signal (z-score),[30],-0.196
